# In the antibiotic and cytotoxicity screens of Wong et al. (2023):
# This is one part of the list.
# Experiments:
# [1] = system: HSkMC (human skeletal muscle cells); test: cytotoxicity call (relative viability < 0.9); settings: 10 µM
# [2] = system: S. aureus RN4220; test: growth inhibition call (relative growth <= 0.2); settings: 50 µM
SMILES,cytotoxicity call [1],growth inhibition call [2]
C[C@@H]1CN([C@@H](C)CO)C(=O)c2cc(NC(=O)c3ccncc3)ccc2O[C@@H]1CN(C)S(=O)(=O)c1cccs1,inactive,inactive
C[C@H](CO)N1C[C@H](C)[C@@H](CN(C)C(=O)C2CCCCC2)OCCCC[C@H](C)Oc2ccc(NC(=O)Nc3ccc(C(F)(F)F)cc3)cc2C1=O,inactive,inactive
COc1ccc2c3c([nH]c2c1)[C@H](CO)N(C[C@]13CCN(CC1)CC1CCCC1)S(=O)(=O)c1cn(cn1)C,inactive,inactive
CCCN(C)C[C@H]1OCCCC[C@@H](C)Oc2ccc(NC(=O)Nc3ccc(F)cc3)cc2C(=O)N([C@H](C)CO)C[C@@H]1C,inactive,inactive
CO[C@@H]1CN(C)C(=O)c2cc(NC(=O)CC(F)(F)F)ccc2OC[C@@H](C)N(S(=O)(=O)c2cn(C)cn2)C[C@@H]1C,inactive,inactive
C[C@H]1CCCCO[C@@H](CN(C)C(=O)Nc2ccc3c(c2)OCO3)[C@@H](C)CN([C@@H](C)CO)C(=O)c2cc(NC(=O)Nc3ccccc3)ccc2O1,inactive,inactive
CC(C)NC(=O)N(C)C[C@H]1Oc2ccc(NC(=O)CCN3CCOCC3)cc2CC(=O)N([C@@H](C)CO)C[C@H]1C,inactive,inactive
COc1ccc(NC(=O)N(C)C[C@@H]2Oc3ccc(NS(=O)(=O)c4c(C)noc4C)cc3C(=O)N([C@@H](C)CO)C[C@H]2C)cc1,inactive,inactive
CC(C)=CCC/C(C)=C/CC/C(C)=C/CCC(=O)OC/C=C(\C)CCC=C(C)C,inactive,inactive
C[C@@H]1CN([C@@H](C)CO)C(=O)c2cc(C#Cc3cccnc3)cnc2O[C@@H]1CN(C)Cc1ccc(F)cc1,inactive,inactive
C[C@@H]1CCCCO[C@H](CN(C)C(=O)Cc2ccccc2)[C@H](C)CN([C@H](C)CO)C(=O)c2cc(NC(=O)Nc3ccc(F)cc3)ccc2O1,inactive,inactive
C[C@@H]1CN([C@H](C)CO)C(=O)CCCn2cc(nn2)CO[C@@H]1CN(C)C(=O)Nc1ccc2c(c1)OCCO2,inactive,inactive
Cc1noc(C)c1NC(=O)Nc1ccc2c(c1)CC(=O)N([C@@H](C)CO)C[C@H](C)[C@@H](CN(C)Cc1ccc(C(=O)Nc3ccccc3N)cc1)O2,inactive,inactive
C[C@H]1CN([C@@H](C)CO)C(=O)c2cc(C#CCN(C)C)cnc2O[C@H]1CN(C)S(=O)(=O)c1ccccc1,inactive,inactive
C[C@H]1CCCCO[C@H](CN(C)C(=O)C2CCCCC2)[C@@H](C)CN([C@@H](C)CO)C(=O)c2cc(NC(=O)Nc3ccc(C(F)(F)F)cc3)ccc2O1,active,inactive
COc1ccc(S(=O)(=O)Nc2ccc3c(c2)CC(=O)N([C@@H](C)CO)C[C@@H](C)[C@H](CN(C)S(=O)(=O)c2ccccc2)O3)cc1,inactive,inactive
C[C@@H]1CN([C@@H](C)CO)C(=O)c2cc(NC(=O)Nc3cccc4ccccc34)ccc2O[C@H]1CN(C)C(=O)NC1CCCCC1,inactive,inactive
Cc1noc(C)c1S(=O)(=O)N(C)C[C@@H]1Oc2ccc(NC(=O)Cn3cnnn3)cc2CC(=O)N([C@@H](C)CO)C[C@@H]1C,inactive,inactive
C[C@@H]1CCCCO[C@H](CN(C)Cc2ccc(Cl)c(Cl)c2)[C@@H](C)CN([C@@H](C)CO)C(=O)c2cc(NS(C)(=O)=O)ccc2O1,inactive,inactive
C[C@H]1CN([C@@H](C)CO)C(=O)c2cc(NC(=O)CCCN(C)C)ccc2O[C@@H]1CN(C)C(=O)Nc1ccccc1,inactive,inactive

SMILES,cytotoxicity call [1],growth inhibition call [2]
C[C@H]1CN([C@@H](C)CO)C(=O)CCCn2nncc2CO[C@@H]1CN(C)C(=O)c1cc(-c2ccccc2)on1,inactive,inactive
Cc1noc(C)c1NC(=O)N(C)C[C@@H]1Oc2ccc(NC(=O)Nc3ccc(C(F)(F)F)cc3)cc2CC(=O)N([C@H](C)CO)C[C@@H]1C,inactive,inactive
C[C@@H]1CCCCO[C@@H](CN(C)Cc2ccc(Cl)c(Cl)c2)[C@@H](C)CN([C@H](C)CO)C(=O)c2cc(NC(=O)Nc3ccc(C(F)(F)F)cc3)ccc2O1,inactive,inactive
C[C@H](CO)N1C[C@H](C)[C@@H](CN(C)C(=O)Nc2cccc(F)c2)OCc2ccccc2-c2ccccc2C1=O,inactive,inactive
COCc1nc(C)c(CN)s1,inactive,inactive
Cc1noc(C)c1S(=O)(=O)Nc1ccc2c(c1)CC(=O)N([C@H](C)CO)C[C@@H](C)[C@@H](CN(C)C(=O)Nc1ccccc1)O2,inactive,inactive
Cc1cc(F)ccc1S(=O)(=O)N1[C@@H]2CC[C@@H](C2)[C@H]1c1nc2cccc(OCc3ccc(F)cc3)c2[nH]1,inactive,inactive
C[C@@H]1CCCCO[C@@H](CN(C)Cc2ccc(F)cc2)[C@H](C)CN([C@@H](C)CO)C(=O)c2cc(NC(=O)Nc3ccccc3)ccc2O1,inactive,inactive
C[C@H](CO)N1C[C@H](C)[C@@H](CN(C)Cc2ccc(Oc3ccccc3)cc2)Oc2ccc(NS(=O)(=O)c3ccccc3)cc2C1=O,inactive,inactive
C[C@@H]1CN([C@H](C)CO)C(=O)c2cc(-c3cccc(C(=O)N(C)C)c3)cnc2O[C@H]1CN(C)S(=O)(=O)c1ccc(F)cc1,inactive,inactive
C[C@@H]1CN([C@@H](C)CO)C(=O)c2cc(NC(=O)Nc3ccccc3)ccc2O[C@@H](C)CCCCO[C@@H]1CN(C)C(=O)NC1CCCCC1,inactive,inactive
C[C@@H]1CCCCO[C@H](CN(C)C(=O)Nc2ccc3c(c2)OCO3)[C@@H](C)CN([C@H](C)CO)C(=O)c2cc(NC(=O)c3ccccc3)ccc2O1,inactive,inactive
C[C@H]1CN([C@@H](C)CO)C(=O)c2cccc(NC(=O)Nc3ccccc3)c2O[C@H]1CN(C)Cc1ccc(-c2ccccc2)cc1,inactive,inactive
COc1ccc2c3c([nH]c2c1)[C@@H](CO)N(C[C@]13CN(CCc2ccccc2)C1)C(=O)CN1CCOCC1,inactive,inactive
C[C@@H]1CCCCO[C@H](CN(C)C(=O)Nc2ccc(F)cc2)[C@H](C)CN([C@@H](C)CO)C(=O)c2cc(NC(=O)Nc3ccc4c(c3)OCO4)ccc2O1,inactive,inactive
Cc1ccc(N2C(=O)c3ccccc3[C@](C)(C(=O)NCCN3CCOCC3)[C@@H]2c2ccc(CO)cc2)nc1,inactive,inactive
CN1CCC[C@H]1CCO,inactive,inactive
COC(=O)c1c2oc(c1C(=O)OC)C(=O)N[C@H](Cc1ccccc1)Cn1cc(nn1)CNC(=O)[C@@H](Cc1ccccc1)NC(=O)N[C@@H](CO)CC2,inactive,inactive
O=C(C[C@@H]1C[C@@H]2c3cc(NC(=O)Cc4ccncc4)ccc3O[C@@H]2[C@H](CO)O1)NCc1cccc(F)c1,inactive,inactive
C[C@@H]1CCCCO[C@@H](CN(C)C(=O)C2CCCCC2)[C@H](C)CN([C@@H](C)CO)C(=O)c2cc(NS(=O)(=O)c3ccc(F)cc3)ccc2O1,inactive,inactive

SMILES,cytotoxicity call [1],growth inhibition call [2]
COc1cc2c(cc1OC)-c1c(oc3cc4c(cc3c1=O)CCO4)CO2,inactive,inactive
O=C(C[C@@H]1CC[C@@H]2[C@H](COC[C@H](O)CN2Cc2ccccc2F)O1)N[C@H]1CCN(Cc2ccccc2)C1,inactive,inactive
CC(C)CC#Cc1ccc2c(c1)O[C@@H](CN(C)C(=O)Cc1ccncc1)[C@H](C)CN([C@H](C)CO)S2(=O)=O,inactive,inactive
C[C@H](CO)N1C[C@H](C)[C@H](CN(C)C(=O)Nc2ccc3c(c2)OCO3)Oc2cc(C#Cc3cccnc3)ccc2S1(=O)=O,inactive,inactive
O=c1/c(=C\c2ccc(F)cc2)sc2n1CCN=2,inactive,inactive
CC(C)NC(=O)N(C)C[C@@H]1Oc2c(NC(=O)C3CCCCC3)cccc2C(=O)N([C@H](C)CO)C[C@H]1C,inactive,inactive
NC(=O)c1cn([C@@H]2O[C@H](CO)[C@@H](O)[C@H]2O)c2ncnc(N)c2c1=O,active,inactive
CNC(=O)C[C@H]1CC[C@H]2[C@@H](COC[C@@H](O)CN2C(=O)Nc2ccc3c(c2)OCO3)O1,inactive,inactive
COc1ccccc1NC(=O)N(C)C[C@H]1Oc2ncc(C#CCN(C)C)cc2C(=O)N([C@H](C)CO)C[C@H]1C,inactive,inactive
Cc1ccc(S(=O)(=O)N(C)C[C@@H]2Oc3ccc(NS(C)(=O)=O)cc3C(=O)N([C@H](C)CO)C[C@@H]2C)cc1,inactive,inactive
CC1(C)OC2CC3C4CC(F)C5=CC(=O)C=CC5(C)C4C(O)CC3(C)C2(C(=O)CO)O1 (stereo unspecified),inactive,inactive
C[C@@H]1CN([C@H](C)CO)C(=O)c2cc(-c3cccnc3)cnc2O[C@@H]1CN(C)C(=O)Nc1ccc2c(c1)OCO2,inactive,inactive
COc1ccc(S(=O)(=O)N(C)C[C@@H]2Oc3ccc(NS(=O)(=O)c4cn(C)cn4)cc3CC(=O)N([C@@H](C)CO)C[C@@H]2C)cc1,inactive,inactive
COc1ccc(CN(C)C[C@@H]2OCCCC[C@@H](C)Oc3ccc(NS(=O)(=O)c4c(C)noc4C)cc3C(=O)N([C@H](C)CO)C[C@H]2C)cc1,inactive,inactive
CCCCC(=O)OC1CCC2C3CCc4cc(O)ccc4C3CCC12C (stereo unspecified),inactive,inactive
C[C@@H]1CN([C@H](C)CO)C(=O)c2cc(NC(=O)c3ccncc3)ccc2O[C@H]1CN(C)Cc1ccc2c(c1)OCO2,inactive,inactive
COCC(=O)Nc1ccc2c(c1)[C@@H]1C[C@@H](CC(=O)N3CCOCC3)O[C@@H](CO)[C@@H]1O2,inactive,inactive
C[C@@H]1CCCCO[C@@H](CN(C)CC2CCCCC2)[C@H](C)CN([C@H](C)CO)C(=O)c2cc(NS(=O)(=O)c3ccccc3)ccc2O1,inactive,inactive
